Source: the supplement of paper PMC10886265

How the values were obtained:
Test in all cases: Broth microdilution (CLSI), cation-adjusted Mueller-Hinton broth, two-fold steps from 0.25 to 128 µg/mL, 18 h at 37 °C.
[1] = compound: C[C@@H](O)[C@H]1C(=O)N2C(C(=O)O)=C(SCCNC=N)C[C@H]12 [Imipenem]
[2] = compound: C[C@@H](O)[C@H]1C(=O)N2C(C(=O)O)=C(S[C@@H]3CN[C@H](C(=O)N(C)C)C3)[C@H](C)[C@H]12 [Meropenem]
[3] = compound: C[C@@H](O)[C@H]1C(=O)N2C(C(=O)O)=C(S[C@@H]3CN[C@H](C(=O)Nc4cccc(C(=O)O)c4)C3)[C@H](C)[C@H]12 [Ertapenem]

Test System: Enterobacter cloacae isolate primary sludge #74 (carbapenemase genes (PCR): KPC)
- MIC [1]: 32 µg/mL
- MIC [2]: 64 µg/mL
- MIC [3]: 16 µg/mL

Test System: Enterobacter cloacae isolate primary sludge #77 (carbapenemase genes (PCR): KPC)
- MIC [1]: 32 µg/mL
- MIC [2]: 64 µg/mL
- MIC [3]: 8 µg/mL

Test System: Enterobacter cloacae isolate primary sludge #85 (carbapenemase genes (PCR): KPC)
- MIC [1]: 32 µg/mL
- MIC [2]: 64 µg/mL
- MIC [3]: 16 µg/mL

Test System: Enterobacter cloacae isolate primary sludge #188 (carbapenemase genes (PCR): KPC)
- MIC [1]: 32 µg/mL
- MIC [2]: 32 µg/mL
- MIC [3]: 16 µg/mL

Test System: Enterobacter cloacae isolate primary sludge #192 (carbapenemase genes (PCR): KPC)
- MIC [1]: 16 µg/mL
- MIC [2]: 64 µg/mL
- MIC [3]: 8 µg/mL

Test System: Enterobacter cloacae isolate primary sludge #193 (carbapenemase genes (PCR): KPC)
- MIC [1]: 16 µg/mL
- MIC [2]: 32 µg/mL
- MIC [3]: 16 µg/mL

Test System: Enterobacter cloacae isolate primary sludge #194 (carbapenemase genes (PCR): KPC+GES)
- MIC [1]: 16 µg/mL
- MIC [2]: 64 µg/mL
- MIC [3]: 4 µg/mL

Test System: Enterobacter cloacae isolate primary sludge #232 (carbapenemase genes (PCR): IMP+GES)
- MIC [1]: 16 µg/mL
- MIC [2]: 64 µg/mL
- MIC [3]: 8 µg/mL

Test System: Enterobacter cloacae isolate secondary sludge #15 (carbapenemase genes (PCR): KPC+GES)
- MIC [1]: 16 µg/mL
- MIC [2]: 32 µg/mL
- MIC [3]: 32 µg/mL

Test System: Enterobacter cloacae isolate secondary sludge #34 (carbapenemase genes (PCR): KPC)
- MIC [1]: 64 µg/mL
- MIC [2]: 128 µg/mL
- MIC [3]: 64 µg/mL

Test System: Enterobacter cloacae isolate secondary sludge #59 (carbapenemase genes (PCR): KPC)
- MIC [1]: 32 µg/mL
- MIC [2]: 64 µg/mL
- MIC [3]: 16 µg/mL

Test System: Enterobacter cloacae isolate secondary sludge #73 (carbapenemase genes (PCR): KPC)
- MIC [1]: 16 µg/mL
- MIC [2]: 32 µg/mL
- MIC [3]: 8 µg/mL

Test System: Enterobacter cloacae isolate secondary sludge #77 (carbapenemase genes (PCR): KPC)
- MIC [1]: 16 µg/mL
- MIC [2]: 64 µg/mL
- MIC [3]: 8 µg/mL

Test System: Enterobacter cloacae isolate secondary sludge #80 (carbapenemase genes (PCR): KPC)
- MIC [1]: 32 µg/mL
- MIC [2]: 64 µg/mL
- MIC [3]: 16 µg/mL

Test System: Enterobacter cloacae isolate secondary sludge #172 (carbapenemase genes (PCR): KPC+GES)
- MIC [1]: 32 µg/mL
- MIC [2]: 64 µg/mL
- MIC [3]: 8 µg/mL

Test System: Enterobacter cloacae isolate sewage #75 (carbapenemase genes (PCR): OXA-48)
- MIC [1]: 128 µg/mL
- MIC [2]: 128 µg/mL
- MIC [3]: 64 µg/mL

Test System: Enterobacter cloacae isolate sewage #80 (carbapenemase genes (PCR): KPC)
- MIC [1]: 64 µg/mL
- MIC [2]: 64 µg/mL
- MIC [3]: 64 µg/mL

Test System: Enterobacter cloacae isolate sewage #92 (carbapenemase genes (PCR): KPC)
- MIC [1]: 32 µg/mL
- MIC [2]: 32 µg/mL
- MIC [3]: 32 µg/mL

Test System: Enterobacter cloacae isolate sewage #109 (carbapenemase genes (PCR): KPC)
- MIC [1]: 64 µg/mL
- MIC [2]: 64 µg/mL
- MIC [3]: 64 µg/mL

Test System: Enterobacter cloacae isolate sewage #122 (carbapenemase genes (PCR): KPC)
- MIC [1]: 32 µg/mL
- MIC [2]: 64 µg/mL
- MIC [3]: 8 µg/mL

Test System: Enterobacter cloacae isolate sewage #123 (carbapenemase genes (PCR): KPC)
- MIC [1]: 32 µg/mL
- MIC [2]: 64 µg/mL
- MIC [3]: 8 µg/mL

Test System: Enterobacter cloacae isolate sewage #147 (carbapenemase genes (PCR): KPC)
- MIC [1]: 16 µg/mL
- MIC [2]: 32 µg/mL
- MIC [3]: 4 µg/mL

Test System: Enterobacter cloacae isolate sewage #172 (carbapenemase genes (PCR): KPC)
- MIC [1]: 16 µg/mL
- MIC [2]: 32 µg/mL
- MIC [3]: 4 µg/mL

Test System: Enterobacter cloacae isolate sewage #208 (carbapenemase genes (PCR): KPC)
- MIC [1]: 8 µg/mL
- MIC [2]: 16 µg/mL
- MIC [3]: 64 µg/mL

Test System: Enterobacter cloacae isolate sewage #227 (carbapenemase genes (PCR): KPC)
- MIC [1]: 8 µg/mL
- MIC [2]: 32 µg/mL
- MIC [3]: 4 µg/mL

Test System: Enterobacter kobei isolate sewage #11 (carbapenemase genes (PCR): KPC)
- MIC [1]: 16 µg/mL
- MIC [2]: 32 µg/mL
- MIC [3]: 4 µg/mL

Test System: Enterobacter kobei isolate sewage #12 (carbapenemase genes (PCR): IMP)
- MIC [1]: 16 µg/mL
- MIC [2]: 32 µg/mL
- MIC [3]: 4 µg/mL

Test System: Enterobacter kobei isolate sewage #17 (carbapenemase genes (PCR): KPC)
- MIC [1]: 32 µg/mL
- MIC [2]: 64 µg/mL
- MIC [3]: 4 µg/mL

Test System: Enterobacter kobei isolate sewage #18 (carbapenemase genes (PCR): ND)
- MIC [1]: 16 µg/mL
- MIC [2]: 64 µg/mL
- MIC [3]: 8 µg/mL

Test System: Enterobacter kobei isolate sewage #20 (carbapenemase genes (PCR): KPC)
- MIC [1]: 128 µg/mL
- MIC [2]: 128 µg/mL
- MIC [3]: 64 µg/mL

Test System: Enterobacter kobei isolate sewage #124 (carbapenemase genes (PCR): KPC+IMP)
- MIC [1]: 32 µg/mL
- MIC [2]: 64 µg/mL
- MIC [3]: 8 µg/mL

Test System: Enterobacter kobei isolate sewage #137 (carbapenemase genes (PCR): KPC)
- MIC [1]: 32 µg/mL
- MIC [2]: 64 µg/mL
- MIC [3]: 8 µg/mL

Test System: Enterobacter kobei isolate sewage #145 (carbapenemase genes (PCR): KPC)
- MIC [1]: 32 µg/mL
- MIC [2]: 64 µg/mL
- MIC [3]: 8 µg/mL

Test System: Escherichia coli isolate primary sludge #171 (carbapenemase genes (PCR): KPC)
- MIC [1]: 64 µg/mL
- MIC [2]: 64 µg/mL
- MIC [3]: 8 µg/mL

Test System: Escherichia coli isolate primary sludge #172 (carbapenemase genes (PCR): KPC)
- MIC [1]: 64 µg/mL
- MIC [2]: 32 µg/mL
- MIC [3]: 8 µg/mL

Test System: Escherichia coli isolate secondary sludge #40 (carbapenemase genes (PCR): KPC)
- MIC [1]: 64 µg/mL
- MIC [2]: 64 µg/mL
- MIC [3]: 32 µg/mL

Test System: Escherichia coli isolate secondary sludge #174 (carbapenemase genes (PCR): KPC)
- MIC [1]: 16 µg/mL
- MIC [2]: 64 µg/mL
- MIC [3]: 8 µg/mL

Test System: Escherichia coli isolate sewage #225 (carbapenemase genes (PCR): KPC)
- MIC [1]: 16 µg/mL
- MIC [2]: 64 µg/mL
- MIC [3]: 8 µg/mL

Test System: Klebsiella oxytoca isolate primary sludge #133 (carbapenemase genes (PCR): KPC)
- MIC [1]: 64 µg/mL
- MIC [2]: 64 µg/mL
- MIC [3]: 16 µg/mL

Test System: Klebsiella oxytoca isolate primary sludge #138 (carbapenemase genes (PCR): KPC)
- MIC [1]: 32 µg/mL
- MIC [2]: 64 µg/mL
- MIC [3]: 16 µg/mL

Test System: Klebsiella oxytoca isolate primary sludge #152 (carbapenemase genes (PCR): KPC)
- MIC [1]: 8 µg/mL
- MIC [2]: 16 µg/mL
- MIC [3]: 4 µg/mL

Test System: Klebsiella oxytoca isolate primary sludge #159 (carbapenemase genes (PCR): KPC)
- MIC [1]: 16 µg/mL
- MIC [2]: 64 µg/mL
- MIC [3]: 32 µg/mL

Test System: Klebsiella oxytoca isolate primary sludge #161 (carbapenemase genes (PCR): KPC)
- MIC [1]: 64 µg/mL
- MIC [2]: 64 µg/mL
- MIC [3]: 32 µg/mL

Test System: Klebsiella oxytoca isolate primary sludge #170 (carbapenemase genes (PCR): KPC)
- MIC [1]: 64 µg/mL
- MIC [2]: 64 µg/mL
- MIC [3]: 8 µg/mL

Test System: Klebsiella oxytoca isolate primary sludge #191 (carbapenemase genes (PCR): KPC)
- MIC [1]: 16 µg/mL
- MIC [2]: 64 µg/mL
- MIC [3]: 32 µg/mL

Test System: Klebsiella oxytoca isolate primary sludge #205 (carbapenemase genes (PCR): KPC)
- MIC [1]: 16 µg/mL
- MIC [2]: 16 µg/mL
- MIC [3]: 4 µg/mL

Test System: Klebsiella oxytoca isolate primary sludge #206 (carbapenemase genes (PCR): KPC)
- MIC [1]: 16 µg/mL
- MIC [2]: 16 µg/mL
- MIC [3]: 8 µg/mL

Test System: Klebsiella oxytoca isolate primary sludge #207 (carbapenemase genes (PCR): KPC)
- MIC [1]: 16 µg/mL
- MIC [2]: 32 µg/mL
- MIC [3]: 8 µg/mL

Test System: Klebsiella oxytoca isolate primary sludge #209 (carbapenemase genes (PCR): GES)
- MIC [1]: 16 µg/mL
- MIC [2]: 16 µg/mL
- MIC [3]: 4 µg/mL

Test System: Klebsiella oxytoca isolate primary sludge #210 (carbapenemase genes (PCR): GES)
- MIC [1]: 32 µg/mL
- MIC [2]: 32 µg/mL
- MIC [3]: 8 µg/mL

Test System: Klebsiella oxytoca isolate primary sludge #211 (carbapenemase genes (PCR): KPC)
- MIC [1]: 32 µg/mL
- MIC [2]: 64 µg/mL
- MIC [3]: 32 µg/mL

MIC by broth microdilution (CLSI, 0.25-128 µg/mL, 18 h, 37 °C) of Gram-negative wastewater isolates picked on carbapenem-selective plates; higher = less susceptible. No active / inactive call. Isolates were selected for resistance.
